The IC50 comes from the fitted curve, where viability falls to half of the control; fits outside the tested doses are given as limits. AUC sums up the same curve from the lowest dose to the 256-fold higher top dose: 1 means no effect, lower means more sensitive. An inferred top dose was derived from the fitted curves, not read from the paper.
Compound: CCc1nc(-c2cccc(C)c2)c(-c2ccnc(NC(=O)c3ccccc3)c2)s1 [TAK-715]
Experiment: Viability of human cancer cell lines after 72 h of drug (GDSC screen)
Conditions: top dose inferred
Experimental: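 Human cancer cell lines in 384-well plates, medium with 10% serum, drug for 72 h over a 256-fold dose range (nine 2-fold or five 4-fold steps up to the top dose). Adherent lines were fixed and stained with the nucleic acid dye Syto60, suspension lines read with resazurin; signal relative to control wells, capped at 0 and 100%. One two-parameter sigmoid per drug and line, fitted in a mixed model over all curves with the slope shared within a line.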

Cell Line	AUC	IC50
KYSE-180 (oesophagus, adherent, top dose 20 µM)	0.925	> 20 µM
KYSE-220 (oesophagus, adherent, top dose 20 µM)	0.924	> 20 µM
KYSE-270 (oesophagus, adherent, top dose 20 µM)	0.944	> 20 µM
KYSE-410 (oesophagus, adherent, top dose 20 µM)	0.951	> 20 µM
KYSE-450 (oesophagus, adherent, top dose 20 µM)	0.867	16.4 µM
KYSE-510 (oesophagus, adherent, top dose 20 µM)	0.97	> 20 µM
KYSE-520 (oesophagus, adherent, top dose 20 µM)	0.981	> 20 µM
L-363 (myeloma, suspension, top dose 20 µM)	0.898	19.1 µM
L-428 (Hodgkin lymphoma, suspension, top dose 20 µM)	0.954	> 20 µM
L-540 (Hodgkin lymphoma, suspension, top dose 20 µM)	0.901	> 20 µM
L-1236 (Hodgkin lymphoma, suspension, top dose 20 µM)	0.979	> 20 µM
LAMA-84 (chronic myeloid leukaemia, suspension, top dose 20 µM)	0.865	18.1 µM
LAN-6 (neuroblastoma, adherent, top dose 20 µM)	0.95	> 20 µM
LB373-MEL-D (melanoma, adherent, top dose 20 µM)	0.969	> 20 µM
LB647-SCLC (small cell lung carcinoma, semi-adherent, top dose 20 µM)	0.978	> 20 µM
LB771-HNC (head and neck, adherent, top dose 20 µM)	0.92	> 20 µM
LB831-BLC (bladder, adherent, top dose 20 µM)	0.983	> 20 µM
LB996-RCC (kidney, adherent, top dose 20 µM)	0.957	> 20 µM
LB1047-RCC (kidney, adherent, top dose 20 µM)	0.888	> 20 µM
LB2241-RCC (kidney, adherent, top dose 20 µM)	0.955	> 20 µM
LB2518-MEL (melanoma, adherent, top dose 20 µM)	0.938	> 20 µM
LC4-1 (lymphoblastic leukaemia, suspension, top dose 20 µM)	0.862	> 20 µM
LC-1-sq (lung squamous cell carcinoma, adherent, top dose 20 µM)	0.919	> 20 µM
LC-2-ad (lung adenocarcinoma, adherent, top dose 20 µM)	0.944	> 20 µM
LCLC-97TM1 (large cell lung carcinoma, adherent, top dose 20 µM)	0.93	> 20 µM
LCLC-103H (large cell lung carcinoma, adherent, top dose 20 µM)	0.968	> 20 µM
LK-2 (lung squamous cell carcinoma, adherent, top dose 20 µM)	0.963	> 20 µM

Cell Line	AUC	IC50
LN-18 (glioma, adherent, top dose 20 µM)	0.992	> 20 µM
LN-229 (glioma, adherent, top dose 20 µM)	0.981	> 20 µM
LN-405 (glioma, adherent, top dose 20 µM)	0.97	> 20 µM
LNCaP-Clone-FGC (prostate, adherent, top dose 20 µM)	0.897	> 20 µM
LNZTA3WT4 (glioma, adherent, top dose 20 µM)	0.979	> 20 µM
LOU-NH91 (lung squamous cell carcinoma, adherent, top dose 20 µM)	0.977	> 20 µM
LOUCY (T-cell lymphoblastic leukaemia, suspension, top dose 20 µM)	0.755	5.68 µM
LOXIMVI (melanoma, semi-adherent, top dose 20 µM)	0.97	> 20 µM
LP-1 (myeloma, suspension, top dose 20 µM)	0.897	17.3 µM
LS-123 (large intestine, adherent, top dose 20 µM)	0.935	> 20 µM
LS-180 (large intestine, adherent, top dose 20 µM)	0.94	> 20 µM
LS-411N (large intestine, adherent, top dose 20 µM)	0.901	> 20 µM
LS-513 (large intestine, adherent, top dose 20 µM)	0.87	19.9 µM
LS-1034 (large intestine, adherent, top dose 20 µM)	0.966	> 20 µM
LU-65 (large cell lung carcinoma, suspension, top dose 20 µM)	0.93	> 20 µM
LU-99A (large cell lung carcinoma, adherent, top dose 20 µM)	0.961	> 20 µM
LU-134-A (small cell lung carcinoma, suspension, top dose 20 µM)	0.981	> 20 µM
LU-135 (small cell lung carcinoma, suspension, top dose 20 µM)	0.971	> 20 µM
LU-139 (small cell lung carcinoma, suspension, top dose 20 µM)	0.897	> 20 µM
LU-165 (small cell lung carcinoma, suspension, top dose 20 µM)	0.985	> 20 µM
LXF-289 (lung adenocarcinoma, adherent, top dose 20 µM)	0.919	> 20 µM
LoVo (large intestine, adherent, top dose 20 µM)	0.987	> 20 µM
M14 (melanoma, adherent, top dose 20 µM)	0.986	> 20 µM
M059J (glioma, adherent, top dose 20 µM)	0.952	> 20 µM
MC116 (B-cell lymphoma, suspension, top dose 20 µM)	0.976	> 20 µM
MC-CAR (haematopoietic neoplasm, suspension, top dose 20 µM)	0.858	13.7 µM
MC-IXC (neuroblastoma, adherent, top dose 20 µM)	0.83	8.27 µM

Cell Line	AUC	IC50
MCF7 (breast, adherent, top dose 20 µM)	0.955	> 20 µM
MDA-MB-157 (breast, adherent, top dose 20 µM)	0.987	> 20 µM
MDA-MB-175-VII (breast, adherent, top dose 20 µM)	0.958	> 20 µM
MDA-MB-231 (breast, adherent, top dose 20 µM)	0.984	> 20 µM
MDA-MB-330 (breast, adherent, top dose 20 µM)	0.975	> 20 µM
MDA-MB-361 (breast, adherent, top dose 20 µM)	0.986	> 20 µM
MDA-MB-415 (breast, adherent, top dose 20 µM)	0.978	> 20 µM
MDA-MB-436 (breast, adherent, top dose 20 µM)	0.976	> 20 µM
MDA-MB-453 (breast, adherent, top dose 20 µM)	0.885	> 20 µM
MDA-MB-468 (breast, adherent, top dose 20 µM)	0.895	> 20 µM
MDST8 (large intestine, adherent, top dose 20 µM)	0.987	> 20 µM
ME-1 (acute myeloid leukaemia, suspension, top dose 20 µM)	0.985	> 20 µM
ME-180 (cervix, adherent, top dose 20 µM)	0.822	12.4 µM
MEG-01 (chronic myeloid leukaemia, suspension, top dose 20 µM)	0.841	12.7 µM
MEL-JUSO (melanoma, adherent, top dose 20 µM)	0.954	> 20 µM
MES-SA (uterus, adherent, top dose 20 µM)	0.93	> 20 µM
MFE-280 (endometrium, adherent, top dose 20 µM)	0.906	> 20 µM
MFE-296 (endometrium, adherent, top dose 20 µM)	0.982	> 20 µM
MFE-319 (endometrium, adherent, top dose 20 µM)	0.969	> 20 µM
MFH-ino (soft tissue, adherent, top dose 20 µM)	0.961	> 20 µM
MFM-223 (breast, adherent, top dose 20 µM)	0.929	> 20 µM
MG-63 (osteosarcoma, adherent, top dose 20 µM)	0.984	> 20 µM
MHH-ES-1 (Ewing sarcoma, adherent, top dose 20 µM)	0.874	19 µM
MHH-NB-11 (neuroblastoma, adherent, top dose 20 µM)	0.907	> 20 µM
MHH-PREB-1 (B-cell leukaemia, suspension, top dose 20 µM)	0.912	> 20 µM
MIA-PaCa-2 (pancreas, adherent, top dose 20 µM)	0.957	> 20 µM

Reference: the supplement of paper PMC4967469
